# The supplement of paper PMC8728848
# Some of the results follow.
# Assays:
# Test in all cases: glycan array binding signal (z-score within array); higher = stronger binding
# Conditions in all cases: glycan notation: IUPAC condensed, linker removed
# [1] = biological target: Fuc(a1-2)Gal6S(b1-3)GlcNAc
# Outline: (§1)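 The Consortium for Functional Glycomics database supplied 3228 glycan arrays, of which those lacking an available protein sequence were dropped. The binding signal, a within-array Z-score, was averaged across arrays of the same protein sequence and across linkers. Negative scores can be read as non-binding.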
# [2] = biological target: Fuc(a1-2)Gal6S(b1-3)GlcNAc6S
# Outline: as §1
# Fuc(a1-2)Gal6S(b1-4)Glc = biological target: Fuc(a1-2)Gal6S(b1-4)Glc
# Outline: as §1
# [3] = biological target: Fuc(a1-2)Gal6S(b1-4)Glc6S
# Outline: as §1
# Fuc(a1-2)[Gal(a1-3)]Gal = biological target: Fuc(a1-2)[Gal(a1-3)]Gal
# Outline: as §1
# [4] = biological target: Fuc(a1-2)[Gal(a1-3)]Gal(b1-3)GalNAc
# Outline: as §1
# [5] = biological target: Fuc(a1-2)[Gal(a1-3)]Gal(b1-3)GalNAc(b1-3)Gal(a1-4)Gal(b1-4)Glc
# Outline: as §1
# [6] = biological target: Fuc(a1-2)[Gal(a1-3)]Gal(b1-3)GlcNAc
# Outline: as §1
# [7] = biological target: Fuc(a1-2)[Gal(a1-3)]Gal(b1-3)GlcNAc(b1-2)Man(a1-3)[Fuc(a1-2)[Gal(a1-3)]Gal(b1-3)GlcNAc(b1-2)Man(a1-6)]Man(b1-4)GlcNAc(b1-4)GlcNAc
# Outline: as §1
# [8] = biological target: Fuc(a1-2)[Gal(a1-3)]Gal(b1-3)GlcNAc(b1-2)Man(a1-3)[Fuc(a1-2)[Gal(a1-3)]Gal(b1-3)GlcNAc(b1-2)Man(a1-6)]Man(b1-4)GlcNAc(b1-4)[Fuc(a1-6)]GlcNAc
# Outline: as §1
# [9] = biological target: Fuc(a1-2)[Gal(a1-3)]Gal(b1-3)GlcNAc(b1-3)GalNAc
# Outline: as §1
# [10] = biological target: Fuc(a1-2)[Gal(a1-3)]Gal(b1-3)GlcNAc(b1-6)GalNAc
# Outline: as §1
# [11] = biological target: Fuc(a1-2)[Gal(a1-3)]Gal(b1-4)Glc
# Outline: as §1
# [12] = biological target: Fuc(a1-2)[Gal(a1-3)]Gal(b1-4)GlcNAc
# Outline: as §1
# [13] = biological target: Fuc(a1-2)[Gal(a1-3)]Gal(b1-4)GlcNAc(b1-2)Man
# Outline: as §1
# [14] = biological target: Fuc(a1-2)[Gal(a1-3)]Gal(b1-4)GlcNAc(b1-2)Man(a1-3)[Fuc(a1-2)[Gal(a1-3)]Gal(b1-4)GlcNAc(b1-2)Man(a1-6)]Man(b1-4)GlcNAc(b1-4)GlcNAc
# Outline: as §1
# [15] = biological target: Fuc(a1-2)[Gal(a1-3)]Gal(b1-4)GlcNAc(b1-2)Man(a1-3)[Fuc(a1-2)[Gal(a1-3)]Gal(b1-4)GlcNAc(b1-2)Man(a1-6)]Man(b1-4)GlcNAc(b1-4)[Fuc(a1-6)]GlcNAc
# Outline: as §1
# [16] = biological target: Fuc(a1-2)[Gal(a1-3)]Gal(b1-4)GlcNAc(b1-3)GalNAc
# Outline: as §1
# [17] = biological target: Fuc(a1-2)[Gal(a1-3)]Gal(b1-4)GlcNAc(b1-3)[Fuc(a1-2)[Gal(a1-3)]Gal(b1-4)GlcNAc(b1-6)]GalNAc
# Outline: as §1
# [18] = biological target: Fuc(a1-2)[Gal(a1-3)]Gal(b1-4)GlcNAc(b1-6)GalNAc
# Outline: as §1
# [19] = biological target: Fuc(a1-2)[Gal(a1-3)]Gal(b1-4)[Fuc(a1-3)]Glc
# Outline: as §1
# [20] = biological target: Fuc(a1-2)[Gal(a1-3)]Gal(b1-4)[Fuc(a1-3)]GlcNAc
# Outline: as §1
# [21] = biological target: Fuc(a1-2)[Gal(a1-3)]Gal(b1-4)[Fuc(a1-3)]GlcNAc(b1-3)GalNAc
# Outline: as §1
# [22] = biological target: Fuc(a1-2)[Gal(a1-4)]Gal(b1-4)GlcNAc
# Outline: as §1
# [23] = biological target: Fuc(a1-2)[GalNAc(a1-3)]Gal
# Outline: as §1
# [24] = biological target: Fuc(a1-2)[GalNAc(a1-3)]Gal(b1-3)GalNAc(a1-3)[Fuc(a1-2)]Gal(b1-4)GlcNAc
# Outline: as §1
# [25] = biological target: Fuc(a1-2)[GalNAc(a1-3)]Gal(b1-3)GalNAc(b1-3)Gal(a1-4)Gal(b1-4)Glc
# Outline: as §1
# [26] = biological target: Fuc(a1-2)[GalNAc(a1-3)]Gal(b1-3)GlcNAc
# Outline: as §1
# [27] = biological target: Fuc(a1-2)[GalNAc(a1-3)]Gal(b1-3)GlcNAc(b1-2)Man(a1-3)[Fuc(a1-2)[GalNAc(a1-3)]Gal(b1-3)GlcNAc(b1-2)Man(a1-6)]Man(b1-4)GlcNAc(b1-4)GlcNAc
# Outline: as §1
# [28] = biological target: Fuc(a1-2)[GalNAc(a1-3)]Gal(b1-3)GlcNAc(b1-2)Man(a1-3)[Fuc(a1-2)[GalNAc(a1-3)]Gal(b1-3)GlcNAc(b1-2)Man(a1-6)]Man(b1-4)GlcNAc(b1-4)[Fuc(a1-6)]GlcNAc
# Outline: as §1
# [29] = biological target: Fuc(a1-2)[GalNAc(a1-3)]Gal(b1-3)GlcNAc(b1-3)GalNAc
# Outline: as §1
# [30] = biological target: Fuc(a1-2)[GalNAc(a1-3)]Gal(b1-3)GlcNAc(b1-6)GalNAc
# Outline: as §1
# [31] = biological target: Fuc(a1-2)[GalNAc(a1-3)]Gal(b1-4)Glc
# Outline: as §1
# [32] = biological target: Fuc(a1-2)[GalNAc(a1-3)]Gal(b1-4)GlcNAc
# Outline: as §1
# [33] = biological target: Fuc(a1-2)[GalNAc(a1-3)]Gal(b1-4)GlcNAc(b1-2)Man
# Outline: as §1
# [34] = biological target: Fuc(a1-2)[GalNAc(a1-3)]Gal(b1-4)GlcNAc(b1-2)Man(a1-3)[Fuc(a1-2)[GalNAc(a1-3)]Gal(b1-4)GlcNAc(b1-2)Man(a1-6)]Man(b1-4)GlcNAc(b1-4)GlcNAc
# Outline: as §1
# [35] = biological target: Fuc(a1-2)[GalNAc(a1-3)]Gal(b1-4)GlcNAc(b1-2)Man(a1-3)[Fuc(a1-2)[GalNAc(a1-3)]Gal(b1-4)GlcNAc(b1-2)Man(a1-6)]Man(b1-4)GlcNAc(b1-4)[Fuc(a1-6)]GlcNAc
# Outline: as §1
# [36] = biological target: Fuc(a1-2)[GalNAc(a1-3)]Gal(b1-4)GlcNAc(b1-3)Gal(b1-4)GlcNAc
# Outline: as §1
# [37] = biological target: Fuc(a1-2)[GalNAc(a1-3)]Gal(b1-4)GlcNAc(b1-3)Gal(b1-4)GlcNAc(b1-3)Gal(b1-4)GlcNAc
# Outline: as §1
# [38] = biological target: Fuc(a1-2)[GalNAc(a1-3)]Gal(b1-4)GlcNAc(b1-3)GalNAc
# Outline: as §1
# [39] = biological target: Fuc(a1-2)[GalNAc(a1-3)]Gal(b1-4)GlcNAc(b1-3)[Fuc(a1-2)[GalNAc(a1-3)]Gal(b1-4)GlcNAc(b1-6)]GalNAc
# Outline: as §1
# [40] = biological target: Fuc(a1-2)[GalNAc(a1-3)]Gal(b1-4)GlcNAc(b1-6)GalNAc
# Outline: as §1
# [41] = biological target: Fuc(a1-2)[GalNAc(a1-3)]Gal(b1-4)[Fuc(a1-3)]GlcNAc
# Outline: as §1
# [42] = biological target: Fuc(a1-2)[GalNAc(a1-3)]Gal(b1-4)[Fuc(a1-3)]GlcNAc(b1-3)GalNAc
# Outline: as §1
# [43] = biological target: Fuc(a1-2)[GalNAc(a1-4)]Gal(b1-4)GlcNAc
# Outline: as §1
binder,measurement,setting,value
"Epa9 (Candida glabrata), CAGL0A01386g (protein) MGSSHHHHHHSSGLVPRGSHMDITPFAHYPRPEGCSSPPNAVSVGLHMDLYNYPYLYVKNPRTGFTNDTDSDADGETDGDSAGGIEGRAGQCWNPEYQDPNFPRYGYKKYGSFGSSDHVNGKISWDHNEFKEGCKPIMARLPTAYNYPAKITFSNFTMVLSGYFKPKSTGLYKFEIHADDFILFNFGSKNAFECCNREESIDNFGPYVAYAMWPNEADQELEVYLFEDSYYPIRLFYNNRDYHSKFMVGFYPPNTEEITYDFDGYLYMLDDTGNECKDSIRYKTVCDD",glycan array binding signal (z-score),[1],-0.444
same,glycan array binding signal (z-score),[2],-0.417
same,glycan array binding signal (z-score),Fuc(a1-2)Gal6S(b1-4)Glc,-0.462
same,glycan array binding signal (z-score),[3],-0.459
same,glycan array binding signal (z-score),Fuc(a1-2)[Gal(a1-3)]Gal,-0.137
same,glycan array binding signal (z-score),[4],-0.34
same,glycan array binding signal (z-score),[5],-0.371
same,glycan array binding signal (z-score),[6],-0.32
same,glycan array binding signal (z-score),[7],-0.172
same,glycan array binding signal (z-score),[8],-0.391
same,glycan array binding signal (z-score),[9],-0.363
same,glycan array binding signal (z-score),[10],-0.415
same,glycan array binding signal (z-score),[11],-0.338
same,glycan array binding signal (z-score),[12],0.07
same,glycan array binding signal (z-score),[13],-0.056
same,glycan array binding signal (z-score),[14],0.041
same,glycan array binding signal (z-score),[15],-0.319
same,glycan array binding signal (z-score),[16],-0.304
same,glycan array binding signal (z-score),[17],-0.079
same,glycan array binding signal (z-score),[18],-0.507
same,glycan array binding signal (z-score),[19],-0.424
same,glycan array binding signal (z-score),[20],-0.364
same,glycan array binding signal (z-score),[21],-0.382
same,glycan array binding signal (z-score),[22],3.27
same,glycan array binding signal (z-score),[23],-0.462
same,glycan array binding signal (z-score),[24],-0.409
same,glycan array binding signal (z-score),[25],-0.448
same,glycan array binding signal (z-score),[26],-0.462
same,glycan array binding signal (z-score),[27],-0.465
same,glycan array binding signal (z-score),[28],-0.47
same,glycan array binding signal (z-score),[29],-0.341
same,glycan array binding signal (z-score),[30],-0.517
same,glycan array binding signal (z-score),[31],-0.43
same,glycan array binding signal (z-score),[32],-0.469
same,glycan array binding signal (z-score),[33],-0.495
same,glycan array binding signal (z-score),[34],-0.421
same,glycan array binding signal (z-score),[35],-0.455
same,glycan array binding signal (z-score),[36],-0.467
same,glycan array binding signal (z-score),[37],0.043
same,glycan array binding signal (z-score),[38],-0.482
same,glycan array binding signal (z-score),[39],-0.41
same,glycan array binding signal (z-score),[40],-0.402
same,glycan array binding signal (z-score),[41],-0.423
same,glycan array binding signal (z-score),[42],-0.237
same,glycan array binding signal (z-score),[43],-0.456
